Experimental data: PubChem BioAssay AID1030 (National Center for Advancing Translational Sciences (NCATS), 2008)
Among all 220,000 compounds or so, about 16,000 (7.3%) were called active. This list was built around the results that the source calls inconclusive (neither active nor inactive); the mix of calls is not that of the screen. The call rests on the fitted dose curve; in most records, active means well fitted inhibition curve with a large enough effect (not every such curve was filed as active); inconclusive means small, poorly fitted or top-dose-only effect, or another doubt; inactive means no such curve, though single readings can be large or run the other way. No potency is given beside an inconclusive call; the fits are too rough.

target: Aldehyde dehydrogenase 1A1 (Homo sapiens) (UniProt P00352); experiment: qHTS Assay for Inhibitors of Aldehyde Dehydrogenase 1 (ALDH1A1); conditions: Purified ALDH1A1, NADH fluorescence, propionaldehyde substrate; series mostly up to 75.3 µM
Chain of UniProt P00352 (P00352 whole entry, looked up): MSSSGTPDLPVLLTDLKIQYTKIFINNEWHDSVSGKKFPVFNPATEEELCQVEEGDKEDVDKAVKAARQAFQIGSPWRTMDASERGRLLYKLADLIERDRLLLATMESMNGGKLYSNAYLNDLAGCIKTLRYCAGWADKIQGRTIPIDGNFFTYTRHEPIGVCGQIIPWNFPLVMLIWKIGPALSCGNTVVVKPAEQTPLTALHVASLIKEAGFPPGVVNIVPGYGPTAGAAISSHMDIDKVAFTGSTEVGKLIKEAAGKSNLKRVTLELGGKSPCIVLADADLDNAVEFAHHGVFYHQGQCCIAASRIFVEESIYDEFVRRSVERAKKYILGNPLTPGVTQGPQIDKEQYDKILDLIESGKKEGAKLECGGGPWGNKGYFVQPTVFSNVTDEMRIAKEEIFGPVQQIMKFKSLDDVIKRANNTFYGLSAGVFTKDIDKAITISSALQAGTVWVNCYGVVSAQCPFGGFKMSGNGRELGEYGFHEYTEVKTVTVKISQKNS
Potency means the concentration at half of the fitted maximal effect; tags describe the fitted curve by direction and shape.

| Compound | Potency |
| --- | --- |
| COCCNC(=O)c1cnn2c1NC(c1ccco1)CC2C(F)(F)F (centres undefined) | inconclusive [inhibitor, single point] |
| CCc1ccc(-c2nc(CSCC(=O)N3CCN(c4ncccn4)CC3)c(C)o2)cc1 | inconclusive [inhibitor, partial curve] |
| Cc1cccc(SCc2noc(C(=O)NC(C)C)c2C(=O)O)c1 | inactive |
| NS(=O)(=O)c1ccc(NC(=S)NC(=O)c2ccco2)cc1 | inconclusive [inhibitor, single point] |
| CCSc1nnc(NC(=O)c2nc3nc(C)cc(C)n3n2)s1 | inactive |
| Cc1cc(C)c2nc(SC(C)C(=O)NCC(=O)Nc3ccc(F)c(F)c3F)cc(C)c2c1 (centres undefined) | inactive |
| Cc1cc(N2CCN(c3ccccc3)CC2)n2cc(-c3ccccc3)nc2n1 | inconclusive [inhibitor, single point] |
| Cc1cccc(C(=O)O/N=C2\CCS(=O)(=O)c3sccc32)c1 | inconclusive [inhibitor, single point] |
| CCCn1c(=S)[nH]c2cc(C(=O)NCC3CCCO3)ccc2c1=O (centres undefined) | inactive |
| COc1cccc(CNC(=O)C2CCCN(c3nn4c(=O)cc(C)nc4s3)C2)c1 (centres undefined) | inconclusive [inhibitor, single point] |
| CC(C(=O)NC1CCCC1)N(C(=O)c1snc(C(N)=O)c1N)c1ccc2c(c1)OCCO2 (centres undefined) | active: 12.6 µM |
| Cc1cccc2nc(-c3ccco3)c(Nc3ccc4c(c3)OCO4)n12 | inconclusive [inhibitor, partial curve] |
| CCCN(CCC)CCOc1cc(C)ccc1C(C)C | inconclusive [inhibitor, partial curve] |
| CCOC(=O)N1CCN(S(=O)(=O)c2ccc(C(=O)NNc3nc4c(C)cc(C)cc4s3)cc2)CC1 | inconclusive [inhibitor, partial curve] |
| c1cnc(NC2C3CC4CC(C3)CC2C4)nc1 (centres undefined) | inconclusive [inhibitor, partial curve] |
| Cc1noc(C)c1-c1ccc2ncnc(N3CCOCC3)c2c1 | inactive |
| O=[N+]([O-])c1ccc(Cl)c2c1C1C=CCC1C(c1ccccn1)N2 (centres undefined) | inconclusive [inhibitor, single point] |
| COCc1cc(=O)n2c([nH]c3ccccc32)c1C#N | inconclusive [inhibitor, partial curve] |
| O=c1[nH]c(S)nc2sc3c(c12)CCCC3 | active: 4.47 µM |
| CCCC(C)NNC(=O)c1cc2ccccc2[nH]1 (centres undefined) | inactive |
| COc1cc2cnc(Cl)nc2cc1OC | inconclusive [inhibitor, single point] |
| C#Cc1ccc([C@@H]2C=C(C(=O)Nc3ccccc3)O[C@H](OCC)[C@H]2CCCO)cc1 | inconclusive [inhibitor, partial curve] |
| COc1ccc(NC(=O)CC23CC4CC(CC(C4)C2)C3)cn1 | inactive |
| O=c1c(-c2ccc(F)cc2)nc2cncnc2n1C1CC1 | inactive |
| O=C(c1ccccc1)c1cc(-c2ccccn2)c(N2CCOCC2)s1 | inconclusive [inhibitor, partial curve] |

| Compound | Potency |
| --- | --- |
| Cc1ccccc1S(=O)(=O)c1c(C)cc(C)n(CC(C)C)c1=O | active: 7.94 µM |
| CC1(C(=O)Nc2nnc(SCc3ccccc3)s2)Cc2ccccc2C(=O)O1 (centres undefined) | inconclusive [inhibitor, single point] |
| COc1ccc(N2C(=O)C(Cl)=C(Nc3c(C)n(C)n(-c4ccccc4)c3=O)C2=O)cc1 | inconclusive [inhibitor, single point] |
| CN(C)c1ncc2nc(-c3cccs3)c(=O)n(CCC#N)c2n1 | inconclusive [inhibitor, partial curve] |
| CC(OC(=O)c1ccc2c(=O)n3c(nc2c1)CCCCC3)C(=O)Nc1ccc(F)cc1Cl (centres undefined) | inactive |
| CCN1CCN(C(=S)c2ccc(Cl)c(Cl)c2)CC1 | inconclusive [inhibitor, single point] |
| c1cn(CCCNc2ncnc3nc[nH]c23)cn1 | inactive |
| COc1ccc(S(=O)(=O)NC2(C(F)(F)F)N=C(c3ccccc3)NC2=O)cc1 (centres undefined) | inactive |
| CCOc1ccc(/C(O)=C2\C(=O)C(=O)N(CCN(C)C)C2c2cccc(OC)c2OC)cc1Cl (centres undefined) | inconclusive [inhibitor, single point] |
| COC(=O)c1ccc(NC(=O)CCS(=O)(=O)c2ccc(Br)cc2)cc1 | inactive |
| O=C(COc1ncnc2ccccc12)N1CCN(S(=O)(=O)c2ccc(Cl)cc2)CC1 | inactive |
| O=C(NCc1ccco1)c1cnc2ccccn2c1=O | inconclusive [inhibitor, single point] |
| COc1ccc(-c2cc(C(=O)Nc3nc4ccccc4s3)c3ccccc3n2)cc1OC | inconclusive [inhibitor, single point] |
| COc1ccc(N(C)S(=O)(=O)c2cccc(C(=O)N(C)Cc3ccc(C)o3)c2)cc1 | active: 10 µM |
| O=C(c1ccc(Cl)cc1[N+](=O)[O-])N1CCN(c2ccccn2)CC1 | inconclusive [inhibitor, partial curve, poor fit] |
| CCOc1ccc(-c2nc(-c3ccc(OC)cc3)no2)cc1OCC | inconclusive [inhibitor, single point] |
| c1ccc(-c2n[nH]c3ccccc23)cc1 | inconclusive [inhibitor, single point] |
| CCCOc1ccc(N2C(=O)C3ON(c4ccccc4)C(CCC)C3C2=O)cc1 (centres undefined) | active: 17.8 µM |
| CCN(CC)S(=O)(=O)c1ccc2c(c1)nc(CCC(=O)Nc1ccc3c(c1)OCO3)n2C | active: 7.94 µM |
| C[C@]12CCC(=O)C=C1CCC1C3CC[C@](O)(C(=O)CO)[C@@]3(C)CC3OC312 (some centres undefined) | inconclusive [inhibitor, single point] |
| NC(=O)CSc1ncc(-c2ccc([N+](=O)[O-])cc2)[nH]1 | inconclusive [inhibitor, single point] |
| CN(C)c1ccc(NC(=O)c2sc(SCC(=O)Nc3nccs3)nc2N)cc1 | inconclusive [inhibitor, single point] |
| Cc1ccccc1C(=O)Nc1ccc(-c2nc3ccc(C(=O)c4ccccc4)cc3[nH]2)cc1 | inconclusive [inhibitor, partial curve] |
| CCc1ccc(-c2nc(CN3CCC(C(=O)N4CCN(c5ccccn5)CC4)CC3)c(C)o2)cc1 | inconclusive [inhibitor, partial curve] |
| CCOc1cc(/C=C\[N+](=O)[O-])ccc1OCC(=O)N1CCOCC1 | inconclusive [inhibitor, single point] |

| Compound | Potency |
| --- | --- |
| CCN(CC)S(=O)(=O)c1ccc2oc(C(=O)NCC3COc4ccccc4O3)c(C)c2c1 (centres undefined) | active: 14.1 µM |
| Cn1cnnc1SCC(=O)NCCc1ccc(Cl)cc1Cl | inactive |
| C/C(=N/NC(=O)c1ccc(NC(=O)c2ccc(F)cc2)cc1)c1ccccc1 | inconclusive [inhibitor, single point] |
| COCCCNC(=O)CN1C(=O)/C(=C\c2ccc(C)cc2)Sc2ccccc21 | inactive |
| N#Cc1nc(COc2ccc(Br)cc2)oc1N1CCCCCC1 | inconclusive [inhibitor, partial curve] |
| CC1=CS(=O)(=O)CC1Sc1nc2ccccc2[nH]1 (centres undefined) | inactive |
| COc1ccc(C2C(C#N)=C(N)OC3=C2C(=O)CCC3)cc1OC (centres undefined) | inactive |
| Cc1ccc(C)c(NC(=O)c2sc(Cl)nc2C)c1 | inactive |
| CCOc1ccc2[nH]cc(C(=O)N3CCN(CC)CC3)c(=O)c2c1 | inconclusive [inhibitor, single point] |
| Cc1oc2c(CN(C)C)c(O)ccc2c(=O)c1-c1cscn1 | inconclusive [inhibitor, partial curve] |
| NC(=O)c1ccc(N=C2C(=O)Nc3ccc([N+](=O)[O-])cc32)cc1 | active: 12.6 µM |
| O=C1CCCC(O)=C1N=Nc1cccc(C(=O)O)c1 | inconclusive [inhibitor, single point] |
| C=CCc1ccc(OCCCCN2CCC(C)CC2)c(OC)c1 | inactive |
| CCOC(=O)NN1C(=O)c2ccccc2NC12CCCC2 | inconclusive [inhibitor, partial curve] |
| CC1CCc2sc3ncn4nc(C(=O)NCc5ccco5)nc4c3c2C1 (centres undefined) | inconclusive [inhibitor, single point] |
| O=C(NNC(=O)c1ccccc1Br)c1ccc(SCC2CCCO2)c([N+](=O)[O-])c1 (centres undefined) | inactive |
| CC1CC(C)CN(S(=O)(=O)c2ccc(C(=O)NCc3ccco3)cc2)C1 (centres undefined) | inconclusive [inhibitor, single point] |
| CCCCN(CCCC)S(=O)(=O)c1ccc(C(=O)Nc2nnc(COC)o2)cc1 | inactive |
| CC(C)(C)NC(=O)CC(c1ccccc1)c1ccccc1O (centres undefined) | inactive |
| C=CCn1c(SCN2C(=O)c3ccccc3C2=O)nc2ccc(Cl)cc2c1=O | inactive |
| COc1cccc(C(=O)Nn2c(-c3cccs3)nc3ccccc3c2=O)c1OC | inactive |
| O=C(CNC(=O)c1ccc(F)cc1)N/N=C/c1cc(Br)ccc1OCc1ccccc1 | inactive |
| OCC1(CCc2ccccc2)CCN(Cc2cnc(N3CCCC3)s2)CC1 | inconclusive [inhibitor, partial curve, poor fit] |
| Cc1ccc(S(=O)(=O)N(CC(=O)NCCSc2ccccn2)c2ccc(C)c(C)c2)cc1 | inconclusive [inhibitor, single point] |
